Measurements reported in patent US20250019377A1 (JACOBIO PHARMACEUTICALS CO., LTD, priority 2021, published 2025).

How the values were obtained:
[1] = target: K-Ras G12V (Homo sapiens, UniProt P01116, G12V); assay: SOS1 catalyzed nucleotide exchange assay (GDP form K-Ras), K-Ras G12V; settings: read-out: K-Ras G12V GDP Biochemical Activity (IC50)
[2] = target: T1, K-Ras G12C (Homo sapiens, UniProt P01116, G12C); assay: SOS1 catalyzed nucleotide exchange assay (GDP form K-Ras), K-Ras G12C; settings: read-out: K-Ras G12C GDP Biochemical Activity (IC50)
[3] = target: K-Ras G12A (Homo sapiens, UniProt P01116, G12A); assay: SOS1 catalyzed nucleotide exchange assay (GDP form K-Ras), K-Ras G12A; settings: read-out: K-Ras G12A GDP Biochemical Activity (IC50)
[4] = target: K-Ras G12R (Homo sapiens, UniProt P01116, G12R); assay: SOS1 catalyzed nucleotide exchange assay (GDP form K-Ras), K-Ras G12R; settings: read-out: K-Ras G12R GDP Biochemical Activity (IC50)
[5] = target: K-Ras Q61H (Homo sapiens, UniProt P01116, Q61H); assay: SOS1 catalyzed nucleotide exchange assay (GDP form K-Ras), K-Ras Q61H; settings: read-out: K-Ras Q61H GDP Biochemical Activity (IC50)
[6] = target: K-Ras WT (Homo sapiens, UniProt P01116); assay: SOS1 catalyzed nucleotide exchange assay (GDP form K-Ras), K-Ras WT; settings: read-out: K-Ras WT GDP Biochemical Activity (IC50)
[7] = tested on: p-ERK in AGS cells (K-Ras G12D); assay: Phospho-ERK1/2(THR202/TYR204) HTRF assay, AGS; type: cell-based; settings: Homo sapiens, 2 h, 2 hours incubation
[8] = tested on: p-ERK in SW620 cells (K-Ras G12V); assay: Phospho-ERK1/2(THR202/TYR204) HTRF assay, SW620; type: cell-based; settings: Homo sapiens, SW-620, 2 h, 2 hours incubation
[9] = tested on: p-ERK in NCI-H358 cells (K-Ras G12C); assay: Phospho-ERK1/2(THR202/TYR204) HTRF assay, NCI-H358; type: cell-based; settings: Homo sapiens, 2 hours incubation
[10] = tested on: p-ERK in TCC-PAN2 cells (K-Ras G12R); assay: Phospho-ERK1/2(THR202/TYR204) HTRF assay, TCC-PAN2; type: cell-based; settings: 2 hours incubation
[11] = tested on: p-ERK in NCI-H460 cells (K-Ras Q61H); assay: Phospho-ERK1/2(THR202/TYR204) HTRF assay, NCI-H460; type: cell-based; settings: Homo sapiens, 2 hours incubation
[12] = tested on: p-ERK in MKN-1 cells (K-Ras WT amplification); assay: Phospho-ERK1/2(THR202/TYR204) HTRF assay, MKN-1; type: cell-based; settings: Homo sapiens; MKN-1, K-Ras WT, 2 hours incubation
[13] = tested on: AGS cells (K-Ras G12D); assay: 2D cell growth inhibition assay, AGS; type: cell-based; settings: Homo sapiens, 144 h, 6 days, absolute IC50
[14] = tested on: AsPC-1 cells (K-Ras G12D); assay: 2D cell growth inhibition assay, AsPC-1; type: cell-based; settings: Homo sapiens, ASPC1, 144 h, AsPC-1, K-Ras G12D, 6 days, absolute IC50
[15] = tested on: SW620 cells (K-Ras G12V); assay: 2D cell growth inhibition assay, SW620; type: cell-based; settings: Homo sapiens, SW-620, 144 h, 6 days, absolute IC50
[16] = tested on: TCC-PAN2 cells (K-Ras G12R); assay: 3D cell growth inhibition assay, TCC-PAN2; type: cell-based; settings: 144 h, 6 days, absolute IC50
[17] = tested on: NCI-H460 cells (K-Ras Q61H); assay: 3D cell growth inhibition assay, NCI-H460; type: cell-based; settings: Homo sapiens, 144 h, 6 days, absolute IC50
[18] = tested on: MKN-1 cells (K-Ras WT); assay: 3D cell growth inhibition assay, MKN-1; type: cell-based; settings: Homo sapiens, 144 h, MKN-1, K-Ras WT, 6 days, absolute IC50
[19] = tested on: p-ERK in NCI-H747 cells (K-Ras G13D)
[20] = target: T1, K-Ras G12C; assay: biochemical

C#Cc1c(F)ccc2cc(O)cc(-c3ncc4c(N5C6CCOCC5C6)nc(OC[C@@]56CCCN5C[C@H](F)C6)nc4c3F)c12 (stereo partly drawn) [Compound 42, 4-(4-(3-oxa-7-azabicyclo[4.1.1]octan-7-yl)-8-fluoro-2-(((2R,7aS)-2-fluorotetrahydro-1H-pyrrolizin-7a(5H)-yl)methoxy)pyrido[4,3-d]pyrimidin-7-yl)-5-ethynyl-6-fluoronaphthalen-2-ol trifluoroacetic acid]
IC50 [1]: 0.99 nM | IC50 [2]: 1.46 nM | IC50 [3]: 1.65 nM | IC50 [4]: 1.05 nM | IC50 [5]: 1.51 nM | IC50 [6]: 1.26 nM | IC50 [7]: 10.1 nM | IC50 [8]: 3.02 nM | IC50 [9]: 7.37 nM | IC50 [10]: ~1000 nM | IC50 [11]: 10 nM | IC50 [12]: 7.55 nM | IC50 [13]: 39.1 nM | IC50 [14]: 135 nM | IC50 [15]: 4.18 nM | IC50 [16]: 428 nM | IC50 [17]: 113 nM | IC50 [18]: 8.69 nM | IC50 [19]: 2.56 nM | IC50 [20]: 556 nM
